Data as given in patent US20260176310A1 (NAVIGO PROTEINS, published 2026).

Experiments:
[1] = target: T1, mCD26 expressed on HEK293-mCD26 cells (mouse, UniProt P28843 1-760); assay: flow cytometry on HEK293-mCD26 cells
T1 construct: whole, on cells
Experimental: (§1) Flow cytometry was used to analyze the interaction of FAP binding proteins with cell surface-exposed hFAP and mFAP. FAP overexpressing human embryonic kidney cell line HEK293, CD26-overexpressing HEK293-cells, native FAP expressing cell line Wi38 and empty vector control HEK293-pEntry cells were used. The anti-hFAP antibody (R&D Systems, MAB3715-100) with a concentration of 1 μg/ml in combination with anti-mouse-IgG-Alexa488 (Invitrogen, A10680) with a 1:1000 dilution was used as positive control for hFAP-expressing cells. Anti-mFAP antibody (R&D Systems, MAB9727) with a concentration of 1 μg/ml in combination with anti-rat-IgG-Alexa488 (Invitrogen, A11006) with a dilution of 1:1000 was used as positive control for mFAP-expressing cells.
(§2) Cells were trypsinized and resupended in medium containing FCS, washed and stained in pre-cooled FACS blocking buffer (3% FCS/PBS). A suspension with a cell concentration of 1×10⁶ cells/ml was prepared for cell staining and filled with 100 μl/well into a 96 well plate (Greiner) in triplicate for each cell line.
(§3) Affilin® proteins were tested with a concentration of 1 μM, 100 nM, 10 nM, or 1 nM on FAP expressing cells HEK293-hFAP, HEK293-mFAP and Wi38-cells. To exclude an unspecific binding, Affilin® proteins were also incubated on CD26 expressing cells HEK293-hCD26 and HEK293-mCD26 and control cells HEK293-pEntry with the same concentrations. […] Supernatants were removed after 45 min, cells were washed in blocking buffer and 100 μl/well rabbit anti-StrepTag antibody (GenScript; A00626), 1:300 diluted in FACS blocking buffer were added. After removal of the primary antibody, goat anti-rabbit-IgG-Alexa Fluor 488 antibody (Invitrogen; A11008) was applied in a 1:1000 dilution. Flow cytometry measurement was conducted on the Guava easyCyte 5HT device from Merck-Millipore at excitation wavelength 488 nm and emission wavelength 525/30 nm.

[2] = target: T2, hCD26 expressed on HEK293-hCD26 cells (human, UniProt P27487 1-766); assay: flow cytometry on HEK293-hCD26 cells
T2 construct: whole, on cells
Experimental: as §1, §2, §3

[3] = target: T3, hFAP expressed on cell surfaces (HEK293-hFAP cells; native on Wi38 cells) (human, UniProt Q12884 1-760); assay: flow cytometry, 1 µM Affilin on HEK293-hFAP cells
T3 construct: whole, on cells; also called cell surface-exposed hFAP
T3 sequence (looked up): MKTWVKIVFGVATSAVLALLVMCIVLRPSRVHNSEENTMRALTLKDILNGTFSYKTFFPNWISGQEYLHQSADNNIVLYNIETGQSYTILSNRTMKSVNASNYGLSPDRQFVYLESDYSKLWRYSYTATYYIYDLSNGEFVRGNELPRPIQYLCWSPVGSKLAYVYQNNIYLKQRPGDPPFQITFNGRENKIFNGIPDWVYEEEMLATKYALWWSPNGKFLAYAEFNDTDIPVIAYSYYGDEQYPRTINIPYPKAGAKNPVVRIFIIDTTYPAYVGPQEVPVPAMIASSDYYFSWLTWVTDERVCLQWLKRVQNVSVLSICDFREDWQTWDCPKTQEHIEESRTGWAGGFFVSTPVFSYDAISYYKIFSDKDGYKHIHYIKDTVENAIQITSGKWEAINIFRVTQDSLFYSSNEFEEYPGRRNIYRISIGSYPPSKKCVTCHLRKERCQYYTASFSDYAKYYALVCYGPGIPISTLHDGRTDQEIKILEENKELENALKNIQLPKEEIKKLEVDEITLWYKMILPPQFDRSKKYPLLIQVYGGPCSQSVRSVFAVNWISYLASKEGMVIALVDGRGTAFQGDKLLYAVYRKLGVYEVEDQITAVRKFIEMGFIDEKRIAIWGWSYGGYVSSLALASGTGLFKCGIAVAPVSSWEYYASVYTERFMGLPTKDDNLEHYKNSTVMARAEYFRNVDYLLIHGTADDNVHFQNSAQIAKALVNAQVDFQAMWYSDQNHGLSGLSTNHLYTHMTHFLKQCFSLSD
Experimental: as §1, §2
Affilin® proteins were tested with a concentration of 1 μM, 100 nM, 10 nM, or 1 nM on FAP expressing cells HEK293-hFAP, HEK293-mFAP and Wi38-cells. To exclude an unspecific binding, Affilin® proteins were also incubated on CD26 expressing cells HEK293-hCD26 and HEK293-mCD26 and control cells HEK293-pEntry with the same concentrations. […]

T1 sequence (P28843 whole entry): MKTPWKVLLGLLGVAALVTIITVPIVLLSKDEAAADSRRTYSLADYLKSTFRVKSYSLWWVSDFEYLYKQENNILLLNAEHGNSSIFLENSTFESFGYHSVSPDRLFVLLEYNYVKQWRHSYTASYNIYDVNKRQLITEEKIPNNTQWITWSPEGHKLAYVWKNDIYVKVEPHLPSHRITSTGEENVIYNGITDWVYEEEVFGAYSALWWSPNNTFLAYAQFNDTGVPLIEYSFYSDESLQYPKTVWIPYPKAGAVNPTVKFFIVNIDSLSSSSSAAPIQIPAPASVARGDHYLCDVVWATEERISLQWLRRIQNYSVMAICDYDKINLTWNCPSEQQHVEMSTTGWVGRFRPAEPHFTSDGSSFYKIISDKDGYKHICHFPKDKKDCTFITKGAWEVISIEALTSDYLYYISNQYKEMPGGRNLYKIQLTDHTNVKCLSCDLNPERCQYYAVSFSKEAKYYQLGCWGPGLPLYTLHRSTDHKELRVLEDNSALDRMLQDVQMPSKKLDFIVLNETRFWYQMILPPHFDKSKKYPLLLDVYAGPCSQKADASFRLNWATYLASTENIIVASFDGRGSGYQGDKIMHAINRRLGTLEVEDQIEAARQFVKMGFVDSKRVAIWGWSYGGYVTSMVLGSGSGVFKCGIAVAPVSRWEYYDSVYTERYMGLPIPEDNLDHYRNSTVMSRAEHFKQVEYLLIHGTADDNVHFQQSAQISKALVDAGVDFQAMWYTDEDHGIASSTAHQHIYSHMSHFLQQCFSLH
T2 sequence (P27487 whole entry): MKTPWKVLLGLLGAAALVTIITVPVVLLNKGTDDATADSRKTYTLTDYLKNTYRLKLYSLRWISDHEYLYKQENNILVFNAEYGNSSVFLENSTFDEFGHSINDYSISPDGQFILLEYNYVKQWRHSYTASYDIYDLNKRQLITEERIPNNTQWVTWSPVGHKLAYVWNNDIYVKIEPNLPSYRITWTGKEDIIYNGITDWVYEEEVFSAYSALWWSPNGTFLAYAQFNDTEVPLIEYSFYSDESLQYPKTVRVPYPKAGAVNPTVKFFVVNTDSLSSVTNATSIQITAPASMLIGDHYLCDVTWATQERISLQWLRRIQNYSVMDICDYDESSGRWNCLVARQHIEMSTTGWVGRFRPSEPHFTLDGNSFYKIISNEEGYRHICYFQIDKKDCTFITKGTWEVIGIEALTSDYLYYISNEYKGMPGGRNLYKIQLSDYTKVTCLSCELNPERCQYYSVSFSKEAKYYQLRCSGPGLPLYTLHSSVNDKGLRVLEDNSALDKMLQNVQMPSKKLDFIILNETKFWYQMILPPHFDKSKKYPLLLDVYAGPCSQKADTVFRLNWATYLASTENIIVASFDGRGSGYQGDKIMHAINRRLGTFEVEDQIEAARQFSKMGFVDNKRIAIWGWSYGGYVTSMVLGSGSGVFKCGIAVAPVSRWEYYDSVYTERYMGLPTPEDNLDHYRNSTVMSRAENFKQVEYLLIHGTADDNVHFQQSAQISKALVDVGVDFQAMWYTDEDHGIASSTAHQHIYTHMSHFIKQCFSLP

- binding result [3]: binds
B1: Affilin®-217895 (designed binder)
chain: MQIFVHTWTGKTITMEVEPSDTIENVKAKIQDKEGIPPDQQRLIWAGKQLEDGRTLSDYNIGPMRWPHLVLRLRAAMQIFVWTDTGKTITLEVEPSDTIENVKAKIQDKEGIPPDQQRLIWAGKQLEDGRTLSDYNIWAPANLHLVLRLRAASAWSHPQFEK
notes: Ubiquitin mutein
- binding result [1]: no binding (tested: 1 µM, 100 nM, 10 nM, or 1 nM)
- binding result [2]: no binding (tested: 1 µM, 100 nM, 10 nM, or 1 nM)
